Results from ChEMBL document CHEMBL4888484, “Replenishing the malaria drug discovery pipeline: Screening and hit evaluation of the MMV Hit Generation Library 1 (HGL1) against asexual blood stage Plasmodium falciparum ,using a nano luciferase reporter read-out” (2022).
The campaign covered roughly 150,000 compounds. About 540 (0.36%) showed an effect of 50% or more. Some of the results follow. Where a SMILES comes first, the peptide text is derived from it. The star is where a group is joined. Cbz = O=C(OCc1ccccc1)*

System: Plasmodium falciparum
Assay: Primary screen in NF54 nanoGlo assay, in single point, at 2uM, 72h; a lower Z score goes with more inhibition
Type: functional, Erythrocyte
Conditions: timepoint 72 hour

| Compound | % Inhibition | Z score |
| --- | --- | --- |
| CC(C)c1cc(NCCc2n[nH]c(N)n2)ncn1 | -9% | 1 |
| O=C(CCC1CCCCC1)Nc1ccn(CC(=O)N2CCOCC2)n1 | -4% | 0.54 |
| COCCO[C@H]1CCOC2(CCN(C(=O)Cc3cccc(C)c3)CC2)C1 | 35% | -5.13 |
| c1ccc(Cc2n[nH]c3c2CN(c2nnnn2-c2ccccc2)CC3)cc1 | 0% | -0.05 |
| Cn1nccc1-c1csc(S(=O)(=O)NC2CCCC2)c1 | 1% | -0.09 |
| OC1CN(c2nc([C@H]3CCOC3)cc(N3CC(c4ccccn4)C3)n2)C1 | -25% | 2.2 |
| Cc1cc(CNC(=O)c2ncoc2-c2ccco2)c(C)o1 | 34% | -3.79 |
| Cc1nc(C)c(C(=O)N2CC[C@H](CCc3noc(C4CC4)n3)C2)s1 | 4% | -0.57 |
| CN(C)C(=O)c1ccc(NC(=O)N2CCC(O)(C3CCC3)CC2)nc1 | -9% | 1.74 |
| Cc1csc(NC(=O)C2CCN(C(=O)C(F)(F)c3ccccc3)CC2)n1 | -13% | 2.09 |
| CCc1nc(CN2CCC(CNC(=O)c3sccc3C)CC2)n[nH]1 | -12% | 2.22 |
| COC(=O)[C@@H]1CCCCN1C1CCCC1 | -8% | 1.29 |
| FC(F)(F)Cc1noc(CN2CCOCc3ccccc32)n1 | -15% | 1.75 |
| CC(C)Nc1nc2n(c(=O)n1)CCN2C(C)C | -8% | 0.69 |
| COc1ccc(C(=O)N2[C@H](C(=O)NCc3ccccc3)COC23CCN(C(=O)c2ccccc2Cl)CC3)cc1 | -21% | 3.8 |
| CC(C)NC(=O)[C@@H]1C[C@@H](NCc2c(F)cccc2F)CN1C(C)C | -7% | 1.21 |
| CCc1ccc2ncn([C@H]3COC[C@@H]3O)c(=O)c2c1 | 0% | 0.09 |
| CCOc1ncccc1CNC(=O)c1ccc2ccccc2n1 | -19% | 2.1 |
| CCC(NCC1CCCS1(=O)=O)c1cc(C)ccc1OC (stereo unspecified) | -18% | 2.74 |
| Clc1cccc2c1OCCN2Cc1cnc(N2CCOCC2)nc1 | -4% | 0.45 |
| CC(NC(=O)CN1C(CO)CCS1(=O)=O)c1cccs1 (stereo unspecified) | -13% | 1.53 |

| Compound | % Inhibition | Z score |
| --- | --- | --- |
| CC1(C)CN(C(=O)c2conc2C2CC2)C[C@H](CO)O1 | -10% | 2.01 |
| CCOc1cc(N(C)Cc2nnc3c(=O)n(C)ccn23)ncn1 | -7% | 1.21 |
| Cc1n[nH]c(NS(=O)(=O)c2c(Br)cnn2C)c1C | -34% | 3.99 |
| O=C(NCc1nc(C2CCOCC2)no1)c1cc(-c2ccc3c(c2)OCO3)n[nH]1 | -21% | 2.66 |
| Cc1cccc(CC2CN(C(=O)c3n[nH]c4c3CCC4)C2)c1 | -5% | 0.98 |
| O=C(Nc1nc2ccc(NC(=O)c3cccs3)cc2s1)c1ccccc1 | -4% | 0.36 |
| NC(=O)c1cncc(Oc2nc(C(F)(F)F)cs2)c1 | -2% | 0.22 |
| C[C@H](NCC(=O)Nc1ccnn1C1CCCC1)c1ccc(F)c(F)c1 | 7% | -0.63 |
| CCCC[C@H](CC)C(=O)N(C)Cc1nnc2c(=O)n(C)ccn12 | -3% | 0.55 |
| CC[C@H](NC(C)=O)c1nc(-c2ccco2)nn1CC(C)(C)O | -3% | 0.54 |
| COCCCN(CCOC)C(=O)c1ccc(C(C)=O)[nH]1 | 2% | -0.32 |
| CN(CCCc1cnn(C)c1)c1ccc2cc[nH]c2n1 | 3% | -0.59 |
| CC(C)CC(=O)NCCc1noc(C2CC2)n1 | -9% | 1.2 |
| CCCNC(=O)c1ccc(COc2ccc3c(c2)[C@H](c2cccc(F)c2)N(C(=O)C(C)(C)C)CC3)o1 | -12% | 1.46 |
| Cc1ccc2oc(-c3cc(NC(=O)c4ccc(-c5cccc(Cl)c5)o4)ccc3O)nc2c1 | -10% | 1.14 |
| COCCCC(=O)N1CCC[C@H]1Cn1ccnn1 | -8% | 1.05 |
| Cn1nc(-c2nnc(-c3cccc(Cl)c3)o2)c2ccccc2c1=O | -7% | 1.23 |
| Cc1[nH]ccc1C(=O)N1CCO[C@@H](CF)C1 | -14% | 1.75 |
| O=C(Cn1ccc2ccccc21)N1CC(n2ccnn2)C1 | -7% | 0.84 |
| Cc1noc(Cn2cccc(C(F)(F)F)c2=O)n1 | -12% | 1.05 |
| Cc1cc(C)cc(C2(CNC(=O)[C@@H]3NCCc4[nH]cnc43)CCCC2)c1 | 10% | -1.36 |

| Compound | % Inhibition | Z score |
| --- | --- | --- |
| C[C@]1(O)CCN(C(=O)c2cccc3sc(C(F)(F)F)nc23)C1 | -1% | 0.1 |
| CCCn1cc(C(=O)N2C[C@H](C(=O)O)[C@@H](c3ccccc3C)C2)c(C)n1 | -4% | 0.45 |
| CCN1CCC[C@@H]1CN(C)C(=O)c1nccc2c(S(N)(=O)=O)cccc12 | -6% | 1.16 |
| c1ccc2c(c1)C[C@H](CNc1ncnc3ccsc13)O2 | -20% | 3.18 |
| Cc1cccc(C(=O)Nc2cccc(C(=O)N3CCc4sccc4C3)c2C)n1 | -17% | 2.34 |
| C=CCN(CC=C)C(=O)CN1CCC[C@H]1c1nonc1C | -12% | 1.11 |
| COc1ccc(C2=C[C@@H](c3ccccc3Cl)n3ncc(C(=O)Nc4ccc(C)cc4)c3N2)cc1 | -3% | 0.35 |
| CC(NC(=O)C(C)c1ccc(Cl)s1)c1ncon1 (stereo unspecified) | -13% | 1.14 |
| O=C(Nc1nc(C(F)(F)F)cs1)N[C@H]1CC[C@@H](CO)C1 | -3% | 0.63 |
| CCN1CCC(n2nccc2NCc2ccc(F)cc2)CC1 | 2% | -0.29 |
| CCOC(=O)CN1CCCN(c2nc(OC)ncc2Cl)CC1 | -4% | 0.44 |
| CCN1CCC(N(C)C(=O)Nc2ccc(N3CCOCC3)cc2C)CC1C (stereo unspecified) | -11% | 1.93 |
| Cc1cc2nccc([C@H](C)Oc3ccc(-c4ccccc4)c(F)c3)n2n1 | 38% | -1.09 |
| NC(=O)c1cn(C2CCN(C(=O)NCc3cccc4ccsc34)CC2)nn1 | 2% | -0.36 |
| NC(=O)C1(CNC(=O)c2ccccc2OC[C@H]2CCCO2)CCCC1 | 0% | -0.03 |
| Cc1nn(C)cc1CN1CCN(Cc2ccccc2)[C@H]2CS(=O)(=O)C[C@H]21 | -7% | 1.36 |
| Cc1ccc(C(=O)NCc2nc3ccccc3[nH]2)c(=O)[nH]1 | -7% | 0.9 |
| NC(=O)c1cc2c(nc1N1CC[C@]3(CC(=O)NC3=O)C1)CCC2 | 5% | -0.89 |
| COC[C@@H]1C[C@@H](O)CN1C(=O)CC1CC2CCC1C2 (stereo partly specified) | -5% | 0.95 |
| O=C(CCN(C(=O)c1ccccc1F)C1CCCCC1)Nc1nnc(-c2cccc(Cl)c2)s1 | -16% | 2.31 |
| O=C(NCC1(Cc2ccccc2)CCC1)[C@@H]1CCCN1C(=O)c1ccccn1 | 0% | -0.07 |

| Compound | % Inhibition | Z score |
| --- | --- | --- |
| Cc1nc(-c2ccc(N3CCC[C@H]3C(=O)N(C)C)nc2)[nH]c(=O)c1C | 16% | -1.9 |
| CCOCCCNC(=O)N1CCC2(CC1)C[C@@H](N(C1CC1)S(=O)(=O)CC)CCO2 | -7% | 1.15 |
| COC(=O)C1CCCN1C(=O)C1CCCN1C(=O)CNC(=O)OCc1ccccc1 (stereo not drawn) (Cbz-Gly-Pro-Pro-OMe; configuration not given here) | -1% | 0.12 |
| CCC1Oc2ccc(NC(=O)c3ccccc3)cc2CN(C2CCCc3ccccc32)C1=O (stereo unspecified) | -10% | 1.25 |
| CC1CN(C(=O)C2CCN(C(=O)c3ccc(C(C)C)cc3O)CC2)CC(C)O1 (stereo unspecified) | -3% | 0.46 |
| O=C(Cc1csc(-c2cccnc2)n1)NC[C@H]1CCCO1 | 6% | -0.77 |
| CCCN(Cc1c(-c2ccccc2)noc1N(C)Cc1ccccc1)C[C@H](O)COC(C)C | 3% | -0.41 |
| COc1ccc(-c2nn3c(Nc4cccc(C)c4)cc(C)nc3c2C)cc1OC | -11% | 2.03 |
| C=CCN(CC(=O)N1CCN(c2ccc(-c3cccc(OC)c3)nn2)CC1)C(=O)c1cccc(OC)c1 | -7% | 1.05 |
| O=S(=O)(Nc1nccc(C2CC2)n1)c1ccc2c(c1)CCCC2 | -9% | 1.22 |
| O=C(c1cnc(C2CC2)[nH]c1=O)N1CCC([C@@H](O)CCc2ccccc2)CC1 | -2% | 0.32 |
| CCN1CCN(C(=O)c2csc(C)c2-c2ccc(C)cc2)CC1 | -18% | 1.62 |
| COc1ccccc1CCC(=O)N1CCCN(c2cc(-c3ccc(Cl)cc3)n[nH]2)CC1 | -21% | 2.13 |
| Nc1c(NC(=O)NCCc2ccccc2)c(-c2ccccc2)nn1-c1ccc(F)cc1 | -5% | 0.68 |
| CC(C)(C(=O)N1CCCS(=O)(=O)CC1)C1CC1 | 29% | -3.27 |
| O=C(CC1CCCCC1)N1CCC2(CC1)Nc1ccc(Cl)cc1-n1cccc12 | -19% | 2.51 |
| FCCn1ncnc1CN1CC[C@H](Cc2ccc(F)c(F)c2)C1 | -3% | 0.43 |
| COc1cc(C(=O)N2C[C@H](NS(=O)(=O)N(C)C)[C@@H](C(C)C)C2)ccn1 | -17% | 2.25 |
| CC1=CCN(C(=O)c2cccc(S(=O)(=O)NCc3cccnc3)c2)CC1 | -3% | 0.51 |
| COc1ccc(C)cc1NC(=O)[C@@H]1CCCN1C(=O)c1cnnn1C | -3% | 0.41 |
